{"source": "the supplement of paper PMC12067093", "about": "“Discovery and optimisation of a covalent ligand for TRIM25 and its application to targeted protein ubiquitination” (Chemical Science, 2025)", "compound": "CC1Cc2ccccc2N1C(=O)C1CCCN(C1)C(=O)CCl (mixture of isomers) [TRIM25 ligand 11 (diastereomer mixture)]", "assay": "probe-labelled cysteine peptide fold change vs DMSO (competition) (log2 fold change); higher = less target engagement (more negative = stronger competition)", "details": "THP-1, incubation time: 4 h", "note": "Of roughly 21,000 targets only a part is listed; those with the largest changes were picked by preference.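 Further: competitive chemoproteomic profiling in live THP-1 cells with an iodoacetamide desthiobiotin (IA-DTB) probe, comparing probe-labelled peptide intensities in compound-treated cells against DMSO-treated controls.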"}
{"target": "DDX59_Q5T1V6_453_LFKPPVLVFVDCK (UniProt Q5T1V6)", "values": [{"measurement": "probe-labelled cysteine peptide fold change", "setting": "10 µM", "result": -0.0453}, {"measurement": "probe-labelled cysteine peptide fold change", "setting": "50 µM", "result": -0.216}]}
{"target": "CORO1A_P31146_24_HVFGQPAKADQCYEDVR (UniProt P31146)", "values": [{"measurement": "probe-labelled cysteine peptide fold change", "setting": "10 µM", "result": -0.603}, {"measurement": "probe-labelled cysteine peptide fold change", "setting": "50 µM", "result": -0.423}]}
{"target": "DOCK5_Q9H7D0_1428_QYMQCFTVK (UniProt Q9H7D0)", "values": [{"measurement": "probe-labelled cysteine peptide fold change", "setting": "10 µM", "result": 0.116}, {"measurement": "probe-labelled cysteine peptide fold change", "setting": "50 µM", "result": 0.15}]}
{"target": "CUL3_Q13618_462+464_LKTECGCQFTSK (UniProt Q13618)", "values": [{"measurement": "probe-labelled cysteine peptide fold change", "setting": "10 µM", "result": -0.109}, {"measurement": "probe-labelled cysteine peptide fold change", "setting": "50 µM", "result": -0.185}]}
{"target": "CUL4A_Q13619_379_DKVDHVIEVCFQK (UniProt Q13619)", "values": [{"measurement": "probe-labelled cysteine peptide fold change", "setting": "10 µM", "result": -0.0311}, {"measurement": "probe-labelled cysteine peptide fold change", "setting": "50 µM", "result": -0.00416}]}
{"target": "DOCK10_Q96BY6_2164_GVDQTCTR (UniProt Q96BY6)", "values": [{"measurement": "probe-labelled cysteine peptide fold change", "setting": "10 µM", "result": -0.14}, {"measurement": "probe-labelled cysteine peptide fold change", "setting": "50 µM", "result": -0.162}]}
{"target": "CPSF2_Q9P2I0_187_EIHLNGCSLEMLSRPSLLITDSFNATYVQPR (UniProt Q9P2I0)", "values": [{"measurement": "probe-labelled cysteine peptide fold change", "setting": "10 µM", "result": -0.0875}, {"measurement": "probe-labelled cysteine peptide fold change", "setting": "50 µM", "result": -0.633}]}
{"target": "DTX3L_Q8TDB6_309_QECVSLADSK (UniProt Q8TDB6)", "values": [{"measurement": "probe-labelled cysteine peptide fold change", "setting": "10 µM", "result": 0.138}, {"measurement": "probe-labelled cysteine peptide fold change", "setting": "50 µM", "result": 0.054}]}
{"target": "DHX57_Q6P158_221_MCDGDVGASLEHLLTQCFSETFGER (UniProt Q6P158)", "values": [{"measurement": "probe-labelled cysteine peptide fold change", "setting": "10 µM", "result": 0.0477}, {"measurement": "probe-labelled cysteine peptide fold change", "setting": "50 µM", "result": -0.23}]}
{"target": "DUS2_Q9NX74_373_MCLLEWCR (UniProt Q9NX74)", "values": [{"measurement": "probe-labelled cysteine peptide fold change", "setting": "10 µM", "result": 0.00852}, {"measurement": "probe-labelled cysteine peptide fold change", "setting": "50 µM", "result": -0.0687}]}
{"target": "DHX9_Q08211_1029_SSVNCPFSSQDMK (UniProt Q08211)", "values": [{"measurement": "probe-labelled cysteine peptide fold change", "setting": "10 µM", "result": -0.114}, {"measurement": "probe-labelled cysteine peptide fold change", "setting": "50 µM", "result": -0.137}]}
{"target": "DNAJB1_P25685_179_VSLEEIYSGCTKK (UniProt P25685)", "values": [{"measurement": "probe-labelled cysteine peptide fold change", "setting": "10 µM", "result": -0.583}, {"measurement": "probe-labelled cysteine peptide fold change", "setting": "50 µM", "result": -0.362}]}
{"target": "CSK_P41240_422_NCWHLDAAMR (UniProt P41240)", "values": [{"measurement": "probe-labelled cysteine peptide fold change", "setting": "10 µM", "result": 0.0715}, {"measurement": "probe-labelled cysteine peptide fold change", "setting": "50 µM", "result": 0.0985}]}
{"target": "DGKZ_Q13574_1050_YLLDHAPPEILDAVEENGETCLHQAAALGQR (UniProt Q13574)", "values": [{"measurement": "probe-labelled cysteine peptide fold change", "setting": "10 µM", "result": -0.0159}, {"measurement": "probe-labelled cysteine peptide fold change", "setting": "50 µM", "result": 0.0164}]}
{"target": "CTPS1_P17812_491_CLEEQGLK (UniProt P17812)", "values": [{"measurement": "probe-labelled cysteine peptide fold change", "setting": "10 µM", "result": -0.0213}, {"measurement": "probe-labelled cysteine peptide fold change", "setting": "50 µM", "result": -0.0287}]}
{"target": "DCAF12_Q5T6F0_380_LSACYGSK (UniProt Q5T6F0)", "values": [{"measurement": "probe-labelled cysteine peptide fold change", "setting": "10 µM", "result": 0.0274}, {"measurement": "probe-labelled cysteine peptide fold change", "setting": "50 µM", "result": 0.0315}]}
{"target": "DAXX_Q9UER7_720_LSQTPHSQPPRPGTCK (UniProt Q9UER7)", "values": [{"measurement": "probe-labelled cysteine peptide fold change", "setting": "10 µM", "result": -0.0465}, {"measurement": "probe-labelled cysteine peptide fold change", "setting": "50 µM", "result": -0.584}]}
{"target": "DCAF12_Q5T6F0_177_LPTLDPVCVGDDGHK (UniProt Q5T6F0)", "values": [{"measurement": "probe-labelled cysteine peptide fold change", "setting": "10 µM", "result": 0.0668}, {"measurement": "probe-labelled cysteine peptide fold change", "setting": "50 µM", "result": -0.175}]}
{"target": "CRTAP_O75718_273_DFYLSIADHYVEVLECK (UniProt O75718)", "values": [{"measurement": "probe-labelled cysteine peptide fold change", "setting": "10 µM", "result": 0.358}, {"measurement": "probe-labelled cysteine peptide fold change", "setting": "50 µM", "result": -0.0254}]}
{"target": "CPSF1_Q10570_532_SIRPQVVTTFELPGCYDMWTVIAPVR (UniProt Q10570)", "values": [{"measurement": "probe-labelled cysteine peptide fold change", "setting": "10 µM", "result": -0.12}, {"measurement": "probe-labelled cysteine peptide fold change", "setting": "50 µM", "result": -0.29}]}
{"target": "CORO1A_P31146_40_VSQTTWDSGFCAVNPK (UniProt P31146)", "values": [{"measurement": "probe-labelled cysteine peptide fold change", "setting": "10 µM", "result": 0.0684}, {"measurement": "probe-labelled cysteine peptide fold change", "setting": "50 µM", "result": 0.0565}]}
{"target": "CUL9_Q8IWT3_2300_CTFHHQAR (UniProt Q8IWT3)", "values": [{"measurement": "probe-labelled cysteine peptide fold change", "setting": "10 µM", "result": -0.089}, {"measurement": "probe-labelled cysteine peptide fold change", "setting": "50 µM", "result": -0.0958}]}
{"target": "DDX19A_Q9NUU7_392_VLVTTNVCAR (UniProt Q9NUU7)", "values": [{"measurement": "probe-labelled cysteine peptide fold change", "setting": "10 µM", "result": 0.0847}, {"measurement": "probe-labelled cysteine peptide fold change", "setting": "50 µM", "result": -0.0191}]}
{"target": "DOK2_O60496_110_GDWVQAICLLAFPGQR (UniProt O60496)", "values": [{"measurement": "probe-labelled cysteine peptide fold change", "setting": "10 µM", "result": -0.089}, {"measurement": "probe-labelled cysteine peptide fold change", "setting": "50 µM", "result": -0.0305}]}
{"target": "CTSC_P53634_331_YAQDFGLVEEACFPYTGTDSPCK (UniProt P53634)", "values": [{"measurement": "probe-labelled cysteine peptide fold change", "setting": "10 µM", "result": 0.118}, {"measurement": "probe-labelled cysteine peptide fold change", "setting": "50 µM", "result": 0.102}]}
{"target": "DGLUCY_Q7Z3D6_265_APPGCLTPER (UniProt Q7Z3D6)", "values": [{"measurement": "probe-labelled cysteine peptide fold change", "setting": "10 µM", "result": -0.0418}, {"measurement": "probe-labelled cysteine peptide fold change", "setting": "50 µM", "result": -0.0951}]}
{"target": "DCAF5_Q96JK2_368_QPGCTGDLDGR (UniProt Q96JK2)", "values": [{"measurement": "probe-labelled cysteine peptide fold change", "setting": "10 µM", "result": 0.162}, {"measurement": "probe-labelled cysteine peptide fold change", "setting": "50 µM", "result": 0.101}]}
{"target": "CORO1A_P31146_332_GLEVNKCEIAR (UniProt P31146)", "values": [{"measurement": "probe-labelled cysteine peptide fold change", "setting": "10 µM", "result": -0.741}, {"measurement": "probe-labelled cysteine peptide fold change", "setting": "50 µM", "result": -0.332}]}
{"target": "CSTF3_Q12996_422_HHVYVTAALMEYYCSK (UniProt Q12996)", "values": [{"measurement": "probe-labelled cysteine peptide fold change", "setting": "10 µM", "result": 0.055}, {"measurement": "probe-labelled cysteine peptide fold change", "setting": "50 µM", "result": 0.278}]}
{"target": "CRIP1_P50238_28_DWHRPCLK (UniProt P50238)", "values": [{"measurement": "probe-labelled cysteine peptide fold change", "setting": "10 µM", "result": -0.284}, {"measurement": "probe-labelled cysteine peptide fold change", "setting": "50 µM", "result": -0.267}]}
{"target": "DNMT1_P26358_1476+1478_GVCSCVEAGK (UniProt P26358)", "values": [{"measurement": "probe-labelled cysteine peptide fold change", "setting": "10 µM", "result": -0.213}, {"measurement": "probe-labelled cysteine peptide fold change", "setting": "50 µM", "result": -0.537}]}
